# From PubChem BioAssay AID504832 (National Center for Advancing Translational Sciences (NCATS), 2011)
# The campaign covered roughly 310,000 compounds. About 18,000 (5.8%) were called active. Inconclusive results, whose numbers are uncertain, are shown with a selection of clear calls. Calls follow the shape of the dose curve; as a rule, active = well fitted inhibition curve with a large enough effect; inconclusive = small, poorly fitted or top-dose-only effect, or another doubt; inactive = no such curve, though single readings can be large or run the other way. Potencies of inconclusive entries are left out as doubtful fits.
# Assay: Primary qHTS for delayed death inhibitors of the malarial parasite plastid, 48 hour incubation
# Conditions: P. falciparum luciferase growth in erythrocytes; series mostly up to 28.7 µM; activity change, negative = inhibition: at the top concentration
# Summary of the method: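 Firefly luciferase activity from engineered P. falciparum reports growth; inhibitors lower the luminescent signal. Cultures contained 2% hematocrit erythrocytes at 0.1% final parasitemia.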
# % is scaled to controls: 0 for no effect and ±100 for the full control effect; potency is read from the fitted curve at half-maximal effect; tags tell the direction and shape of the fitted curve.
Compound,Potency,"activity change, negative = inhibition"
COC(=O)C1=C(c2ccc(Cl)c(C(F)(F)F)c2)C[C@@H]2CC[C@H]1N2C(=O)NCc1cc(C)oc1C(F)(F)F,active: 7.38 µM,–
CCOC(=O)N1CCN(c2ccnc3cc(Cl)ccc23)CC1,active: 2.62 µM,–
CC(=O)N1CCc2ccc(S(=O)(=O)N3CC(C)OC(C)C3)cc21 (stereo unspecified),–,inactive: -16.4%
CCCCC1(CC(=O)OC)C(=O)N(c2ccccc2)N(c2ccccc2)C1=O,"inconclusive [inhibitor, partial curve, poor fit]",–
COc1ccc(CCCc2nnc(SCC(=O)NN)o2)cc1,"inconclusive [inhibitor, single point]",–
Cc1cc(C)n(C(=O)CNC(=O)c2cccs2)n1,–,inactive: 10.9%
COc1ccc(S(=O)(=O)N2CCCCCC2)cc1C(=O)Nc1ccc(C)cn1,"inconclusive [inhibitor, single point]",–
COc1ccc(Cc2nc3ccc(C(=O)N4CCCC4)cc3o2)cc1,"inconclusive [inhibitor, single point]",–
CCN(CC)S(=O)(=O)c1cc(C(=O)Nc2nncs2)c(Cl)cc1Cl,"inconclusive [inhibitor, single point]",–
COc1ccc(-c2nnn(CC(=O)N(CC(=O)NC3CCCC3)c3ccccc3)n2)cc1OC,"inconclusive [inhibitor, partial curve, poor fit]",–
O=C(C[n+]1ccsc1)c1ccccc1,–,inactive: -7.32%
COc1cccc(NC(=O)C(C#N)Cc2ccncc2)c1 (stereo unspecified),"inconclusive [inhibitor, partial curve, poor fit]",–
Cc1ccc(S(=O)(=O)Nc2ccc(C(=O)Nc3cc(C)on3)cc2)cc1,–,inactive: -6.69%
CCn1cc(CN(C)C(=O)/C=C/c2ccc([N+](=O)[O-])cc2)c(C)n1,–,inactive: 7.46%
CC(=O)N1N=C(c2ccc(Cl)cc2)OC1c1ccc(C(C)C)cc1 (stereo unspecified),–,inactive: 0%
CC(C)c1ccc(N(C(=O)c2ccco2)C(C(=O)NC2CCCC2)c2cccnc2)cc1 (stereo unspecified),active: 9.28 µM,–
Cc1ccc(NC(=O)CCNC(=O)c2ccccc2Cl)nc1,–,inactive: 6.28%
CCOC(=O)n1ccc(C(=O)Nc2ccccc2F)n1,–,inactive: 50.9%
Cc1ccc(CN=Cc2[nH]c3ccc(Br)c(Cl)c3c2O)cc1,active: 3.29 µM,–
CC(Sc1nnc(C2CC2)n1C1CC1)C(=O)N(C)Cc1cccc(F)c1 (stereo unspecified),–,inactive: 3.18%
Cc1cc(C)c(OC2(c3ccccc3)OC(=O)c3ccccc32)c(C)c1 (stereo unspecified),"inconclusive [inhibitor, partial curve]",–
CCCCn1c(SCC(=O)Nc2ccc3c(c2)OCO3)nc2c1c(=O)n(C)c(=O)n2C,"inconclusive [inhibitor, partial curve]",–
CC(C)CNC(=O)CSc1nc(-c2cccs2)cc(C(F)(F)F)n1,"inconclusive [inhibitor, single point]",–
COc1ccc(C/C(N)=N/OC(=O)c2ccco2)cc1OC,–,inactive: 6.03%

Compound,Potency,"activity change, negative = inhibition"
CC(=O)c1c(N2CCOCC2)nc(=S)n(Cc2ccccc2)c1C,"inconclusive [inhibitor, partial curve]",–
COc1ccc2nc(-c3ccccc3)cc(OC)c2c1,–,inactive: 39.8%
Oc1c(C(c2ccccc2)N2CCc3ccccc3C2)sc2ncnn12 (stereo unspecified),"inconclusive [inhibitor, single point]",–
O=C(/C=C/c1ccc(Cl)cc1)c1ccc([N+](=O)[O-])o1,"inconclusive [inhibitor, single point]",–
NS(=O)(=O)c1cccc(NC(=O)CSc2ncc(C(F)(F)F)cc2Cl)c1,"inconclusive [inhibitor, single point]",–
Cc1ccc(F)cc1NC(=O)Nc1cc(C(C)(C)C)nn1C,"inconclusive [inhibitor, single point]",–
N#Cc1ccc(N/N=C/c2cn(-c3ccccc3)nc2-c2ccccc2)c([N+](=O)[O-])c1,"inconclusive [inhibitor, full curve, poor fit]",–
NC(=O)c1nsc(C(=O)N(c2cccc(F)c2)C(C(=O)NCC2CCCO2)c2cccs2)c1N (stereo unspecified),"inconclusive [inhibitor, single point]",–
O=c1c2cc(N3CCOCC3)ccc2[nH]c(=S)n1CCc1ccccc1,"inconclusive [inhibitor, partial curve]",–
CCCCCc1cc(=O)oc2c(C(CCN3CCCC3)c3ccc(N(C)C)cc3)c(OC)cc(OC)c12 (stereo unspecified),"inconclusive [inhibitor, single point]",–
COc1ccccc1C(=O)O/N=C(/c1ccncc1)c1ccc([N+](=O)[O-])cc1,"inconclusive [inhibitor, single point]",–
CCOC(=O)N1C=CC(C)=C[C@@H]2[C@@H](N3C(=O)c4ccccc4C3=O)C(=O)N21,–,inactive: 0.0441%
COc1ccc(N(C(C)C(=O)N2CCCC2)S(C)(=O)=O)cc1 (stereo unspecified),–,inactive: -3.91%
Cc1ccc(Cc2nnc(SCC(=O)Nc3ccccc3)n(N)c2=O)cc1,"inconclusive [inhibitor, single point]",–
CC1CCN(Cc2c(C(=O)N/N=C/c3cc(Br)ccc3O)nnn2-c2nonc2N)CC1,"inconclusive [inhibitor, single point]",–
C=CCc1c(C)nc(SC)nc1Nc1ccc(C(C)=O)cc1,"inconclusive [inhibitor, partial curve, poor fit]",–
COc1cc(OC)cc(-c2c(C#Cc3ccsc3)c3cc(-c4cnc(OC)nc4)ccc3n2C)c1,"inconclusive [inhibitor, single point]",–
Cc1cccc(Nc2c([N+](=O)[O-])c(=O)n(C)c3ccccc23)c1,active: 14.7 µM,–
COc1cccc(NC(=O)CN(C)C(=O)Cc2c(C)nc3ccccc3c2C)c1,"inconclusive [inhibitor, partial curve, poor fit]",–
O=C(c1ccco1)N1CCCN(Cc2nc(Cc3ccccc3)no2)CC1,–,inactive: -7.33%
COc1cc(C(=O)NCCCNc2nc3cc(C)cc(C)c3cc2C#N)cc(OC)c1OC,"inconclusive [inhibitor, single point]",–
C=CCN1C=C2C(=O)C(C)(OC(=O)CCC(=O)OC)C(=O)C(Br)=C2C=C1c1ccc(OC)cc1 (stereo unspecified),active: 14.7 µM,–
CCOc1cc(N2CCOCC2)c(OCC)cc1NC(=O)c1ccc(S(C)(=O)=O)cc1,"inconclusive [inhibitor, partial curve, poor fit]",–
CC(C)(C)NCC(O)COc1ccc(Br)cc1 (stereo unspecified),"inconclusive [inhibitor, single point]",–

Compound,Potency,"activity change, negative = inhibition"
CCCc1cc(=O)[nH]c(SCC(=O)c2c[nH]c3ccccc23)n1,"inconclusive [inhibitor, single point]",–
O=S1(=O)C=CC(c2ccccc2)C1 (stereo unspecified),–,inactive: 30%
O=C(NCc1nc2ccccc2[nH]1)C1=C[C@H](c2ccc(Br)cc2)C[C@H](OCc2ccc(CO)cc2)O1,"inconclusive [inhibitor, single point]",–
O=C(NC(O)C(=O)c1ccccc1)c1ccc(F)cc1 (stereo unspecified),–,inactive: 17.4%
Cc1c(/C=C/C(=O)c2ccccc2)cnn1C,–,inactive: 101%
CCOC(=O)c1cccc(NC(=O)CCNS(=O)(=O)c2ccc3c(c2)CCN3C(=O)CC)c1,"inconclusive [inhibitor, full curve]",–
CCOc1ccc(NC(=O)CN(C)C(=O)c2cc(-c3ccc(OC)cc3)nc3ccccc23)cc1OCC,active: 9.28 µM,–
COCCCn1cnc2c(c1=O)c1nc3ccccc3nc1n2CCc1ccccc1,"inconclusive [inhibitor, full curve, poor fit]",–
Cc1nnc(C)c2c(C)n(-c3ccccc3N)c(C)c12,"inconclusive [inhibitor, single point]",–
CCCCOc1cccc(-c2nnc(NC(=O)CSc3ccc(C)cc3)s2)c1,–,inactive: -12.6%
COC(=O)c1cc(NC(=O)Cc2ccc(OC)c(OC)c2)cc(C(=O)OC)c1,"inconclusive [inhibitor, single point]",–
COc1ccc(-n2nc(C(=O)O)c3ccccc3c2=O)cc1,–,inactive: -2.89%
C/C(=N\NC(=O)c1cc(-c2cccnc2)nc2ccccc12)c1ccc(O)cc1O,active: 9.28 µM,–
COc1ccccc1NC(=O)c1ccc(CN(c2cc(Cl)ccc2C)S(=O)(=O)c2ccccc2)cc1,"inconclusive [inhibitor, full curve]",–
COc1ccc(N2CC(C(=O)Nc3nnc(SCc4cccnc4)s3)CC2=O)cc1 (stereo unspecified),"inconclusive [inhibitor, single point]",–
CCCCCCn1c(COc2ccccc2F)nnc1SCC(=O)c1c(N)n(C)c(=O)n(C)c1=O,"inconclusive [inhibitor, partial curve, poor fit]",–
O=C(NCCCN1CCCC1=O)c1ccc(S(=O)(=O)Nc2ccccc2F)cc1,"inconclusive [inhibitor, single point]",–
COCCn1ccc2c(OCC(=O)NCCc3ccccc3)cccc2c1=O,"inconclusive [inhibitor, single point]",–
c1ccc2c(c1)ccc1ncccc12,–,inactive: 23.9%
CCOC(=O)c1c(-c2ccccc2)csc1NC(=O)CSc1nnnn1C,active: 4.65 µM,–
CCC(C)N(C(=O)c1csnn1)C(C(=O)NC1CCCC1)c1c(F)cccc1Cl (stereo unspecified),–,inactive: 0.927%
COC(=O)Oc1ccc(/C=N/NC(=O)CSCc2ccc(Cl)cc2)cc1OC,–,inactive: 15.4%
CC(C)(C)NC(=O)CC1C(=O)NCCN1Cc1c(F)cccc1Cl (stereo unspecified),"inconclusive [inhibitor, full curve, poor fit]",–
